Measured values reported in PubChem BioAssay AID1468 (National Center for Advancing Translational Sciences (NCATS), 2008).
“And” between values parts separate entries of the source, which are not always exact repeats. Identical values can stand only once. In all, about 280,000 compounds went through this assay and about 1,100 (0.39%) were called active. The shares of active, inactive and inconclusive entries below differ from those in the screen. Calls come from the whole dose curve; as a rule, active = well fitted inhibition curve with a large enough effect; inconclusive = small, poorly fitted or top-dose-only effect, or effect the other way; inactive = flat fitted curve, though single readings scatter. Potencies beside an inconclusive call are fits to weak or partial responses and may not hold up.

Molecular target: Microtubule-associated protein tau (Homo sapiens) (UniProt P10636)
Assay: qHTS for Inhibitors of Tau Fibril Formation, Fluorescence Polarization; note: nearly all actives have a fitted effect of over 55% in size
Settings: K18 P301L tau heparin fibrillization, Alexa594 FP, 6 h; series mostly up to 57.7 µM
Method in brief: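 Heparin (20 uM) drove fibril formation of recombinant tau K18 P301L, 15 uM unlabeled with 0.24 uM Alexa 594 label, for 6 hr at 37 C in 100 mM sodium acetate pH 7. Fluorescence polarization (555/632 nm) read 1 hr after 30 uM ThT.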
Potency is the fitted concentration of half-maximal effect; tags give direction and shape of the fitted curve.

Sequence of UniProt P10636 (P10636 whole entry, looked up): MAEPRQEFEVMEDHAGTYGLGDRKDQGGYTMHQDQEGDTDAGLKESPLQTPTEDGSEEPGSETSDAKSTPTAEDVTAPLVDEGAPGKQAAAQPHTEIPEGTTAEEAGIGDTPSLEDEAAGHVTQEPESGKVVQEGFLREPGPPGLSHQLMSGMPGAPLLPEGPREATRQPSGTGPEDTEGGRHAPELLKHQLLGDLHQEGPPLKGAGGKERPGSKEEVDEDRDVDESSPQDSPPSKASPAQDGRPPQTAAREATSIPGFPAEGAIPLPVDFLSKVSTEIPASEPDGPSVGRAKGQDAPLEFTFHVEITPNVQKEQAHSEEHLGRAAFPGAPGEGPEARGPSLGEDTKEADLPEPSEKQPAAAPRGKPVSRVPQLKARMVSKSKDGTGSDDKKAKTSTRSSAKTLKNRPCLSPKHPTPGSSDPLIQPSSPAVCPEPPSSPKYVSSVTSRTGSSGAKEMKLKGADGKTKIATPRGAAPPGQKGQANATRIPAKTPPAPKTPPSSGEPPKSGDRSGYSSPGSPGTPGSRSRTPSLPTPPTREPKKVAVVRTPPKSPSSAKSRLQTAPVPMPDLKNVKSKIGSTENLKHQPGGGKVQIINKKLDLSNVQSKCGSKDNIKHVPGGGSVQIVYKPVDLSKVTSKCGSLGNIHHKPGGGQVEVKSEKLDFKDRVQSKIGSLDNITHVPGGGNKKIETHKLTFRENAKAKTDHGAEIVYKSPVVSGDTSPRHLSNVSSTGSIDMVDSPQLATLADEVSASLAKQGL

Potency, active:
N#Cc1cc2c(OCC(O)CN3CCN(C(c4ccccc4)c4ccccc4)CC3)cccc2[nH]1 (stereo not given) 22.4 µM and 28.2 µM
Cc1ccc(C)c(S(=O)(=O)c2nnn3c2nc(Nc2ccc(F)c(Cl)c2)c2sccc23)c1 14.1 µM

Potency, inactive:
COc1ccc(/C(C#N)=C/c2c(-c3ccc(Cl)cc3)nc3c(C)cccn23)cc1
COc1ccc(/C=C/C(=O)NCC2COc3ccccc3O2)cc1OC (stereo not given)
CN(Cc1ccccc1)S(=O)(=O)c1ccc2c(c1)NC(=O)CC(=O)N2
Cc1ccc(CSc2nnc(SCC(=O)N/N=C/c3ccc(C(=O)O)cc3)s2)cc1
CCOC(=O)CSc1nc(Nc2ccc3c(c2)OCO3)c2ccccc2n1
O=C(N/N=C/c1ccccc1)c1ccc(N2CCOCC2)c([N+](=O)[O-])c1
Cc1cccc(C)c1NC(=O)NN=C1CCCCC1
CCc1ccccc1NC(=O)c1ccc2c(O)c(S(=O)(=O)c3ccccc3)c(=O)[nH]c2c1
O=C(O)CCCCCN1C(=O)/C(=C\c2ccncc2)SC1=S
O=C(CSCc1ccccc1Cl)NN=C1CCCCCC1
CCOC(=O)N1CCN(C(=O)CSCC(=O)Nc2nc(-c3ccc(-c4ccccc4)cc3)cs2)CC1
O=C(O)c1cc(-c2ccc(/C=N/Nc3ccc(Cl)cc3)o2)ccc1Cl
Cc1ccc([N+](=O)[O-])c(OCCCN2CCCCCC2)c1
O=c1cc(N2CCN(c3ccc(F)cc3)CC2)[nH]c(=O)n1-c1ccc(Br)cc1
Cn1c(SCc2ccc(C(F)(F)F)cc2)nc2c([nH]c3ccccc32)c1=O
COc1cc(Cl)c(C)cc1NC(=O)c1sc2nc3n(c(=O)c2c1C)CCCCC3
CCOC(=O)c1cc2occc2n1CC(=O)Nc1ccc(OC)cc1OC
COc1ccc(N2CCN(S(=O)(=O)CCNC(=O)Cc3ccc(Cl)cc3)CC2)cc1
COc1cc2c(=O)n(Cc3ccccc3)c(=O)n(CC(=O)C(C)(C)C)c2cc1OC
COc1ccc(CCNC(=O)C2(c3cccs3)CCOCC2)cc1OC
O=C(CCN1CCOCC1)c1ccc(Br)cc1
COc1ccccc1OCCn1c(-c2ccc(Br)cc2)nc2ccccc2c1=O
CN(C)NC(=S)Nc1cccc(C(F)(F)F)c1
CCOC(=O)c1sc(NC(=O)C(C)Sc2nnc(N)s2)nc1C (stereo not given)
CCc1nnc(SCc2nc(-c3ccc(OC)cc3)oc2C)c2cc3sccc3n12
COCCn1nc2cc(C(=O)NCc3cc(C(F)(F)F)cc(C(F)(F)F)c3)ccc2c1OC
Cn1c(Oc2ccc(F)cc2)nc2c1c(=O)n(Cc1ccccc1Cl)c(=O)n2C

Potency, inconclusive:
C=CCCC(=O)Nc1nc(C)c(-c2csc(Nc3ccccc3OC)n2)s1 5.62 µM [activator, full curve]
CCOC(=O)C1CCCN(C(=O)c2cc(Nc3ccc(OC)cc3)nc3ccccc23)C1 (stereo not given) 44.7 µM [activator, single point]
CC(=O)c1sc2nsc(SCCN3CCOCC3)c2c1N 8.91 µM [inhibitor, partial curve]
Cc1ccc(Cl)cc1NC(=O)C(C)n1nnc2sc(-c3ccccc3)cc2c1=O (stereo not given) 28.2 µM [inhibitor, partial curve]
Fc1ccccc1N=C1NN=C(c2ccccc2)CS1 39.8 µM [inhibitor, single point]
O=C(CC1C(=O)N(c2ccccc2)C(=O)N1CCC1=CCCCC1)Nc1ccc(F)cc1 (stereo not given) 10 µM [inhibitor, partial curve]
CCc1ccc(C(=O)c2cn(CC(=O)Nc3ccc(F)cc3)c3ccc(OC)cc3c2=O)cc1 11.2 µM [inhibitor, partial curve]
COc1ccc(NC(=O)Cn2c(=O)n(C(C)C)c(=O)c3oc4ccccc4c32)cc1Cl 20 µM [inhibitor, partial curve]
COc1ccc(C(=O)Cn2nnc(-c3ccccc3NC(=O)c3ccco3)n2)cc1 0.251 µM [inhibitor, full curve, poor fit]
CCCC(=O)Nc1nc(C)c(-c2csc(Nc3ccccc3C)n2)s1 44.7 µM [inhibitor, single point]
COc1ccccc1N(CC(=O)NCCSCc1ccccc1)S(=O)(=O)c1ccc(C)cc1 22.4 µM [activator, single point]
O=C1c2ccccc2C(=O)N1OCc1ccc(Cl)cc1 35.5 µM [inhibitor, single point]
COc1ccc(-n2ncc3c(NCc4ccc5c(c4)OCO5)ncnc32)cc1 20 µM [inhibitor, single point]
COc1ccc(CN(C(=O)/C=C/c2ccco2)C2CCS(=O)(=O)C2)cc1 (stereo not given) 22.4 µM [inhibitor, single point]
COc1cc(/C=N/Nc2cccc(C)c2)ccc1OC(=O)c1cccs1 15.8 µM [activator, partial curve]
O=C(CSc1nccn1-c1ccc(F)cc1)Nc1ccc(OC(F)(F)F)cc1 17.8 µM [inhibitor, partial curve]
COc1ccc2c(c1)-c1nc(/N=C/c3c(O)ccc4ccccc34)sc1CC2 20 µM [inhibitor, partial curve]
COc1cccc2cc(-c3ccnc(=S)[nH]3)oc12 25.1 µM [inhibitor, partial curve, poor fit]
CCSc1nc(-c2ccc(OC)cc2)cc(-c2ccccc2)c1C#N 15.8 µM [inhibitor, partial curve]
COc1ccc(OC)c(NC(=O)CSC2=Nc3ccccc3C3=NC(CC(=O)NCc4ccc5c(c4)OCO5)C(=O)N23)c1 (stereo not given) 25.1 µM [activator, partial curve]
O=C(NCc1ccco1)c1cc2c(s1)CCCCC2 31.6 µM [inhibitor, single point]
COc1ccc(N2CCN(C(=O)c3ccc(N(C)S(=O)(=O)c4ccc(OC)cc4)cc3)CC2)cc1 20 µM [activator, single point]
C#CCn1c(=NC(=O)c2ccc(S(=O)(=O)N3CCc4ccccc4C3)cc2)sc2cc(S(N)(=O)=O)ccc21 25.1 µM [inhibitor, partial curve]
Cc1ccc(NC(=O)CN2C(=O)S/C(=C/c3ccc(O)c([N+](=O)[O-])c3)C2=O)cc1C 1 µM [activator, full curve, poor fit]
COc1cc(OC)cc(C(=O)Nc2ccccc2-c2nc3ccccc3s2)c1 11.2 µM [inhibitor, partial curve]
CCCOc1cccc(C(=O)Nc2cccc(NC(=O)c3ccc(C(C)(C)C)cc3)c2)c1 20 µM [inhibitor, partial curve, poor fit]
O=C(Nc1cccnc1)c1cc(-c2cccnc2)nc2ccc(Br)cc12 28.2 µM [inhibitor, single point]
O=C(Cc1ccc(Cl)c(Cl)c1)Nc1ccc(SC(F)F)cc1 3.98 µM [inhibitor, full curve]
CC(=O)Nc1ccc(NC(=O)C(Sc2ccccc2)c2ccccc2)cc1 (stereo not given) 39.8 µM [inhibitor, single point]
CN(C)S(=O)(=O)c1ccc(N2CCCC2)c(C(=O)Nc2nc(-c3cc(F)ccc3F)cs2)c1 39.8 µM [inhibitor, single point]
CN(C)CCN1C(=O)c2ccccc2N(C)c2ccccc21 0.158 µM [inhibitor, full curve, poor fit]
CC(S)C(=O)NCC(=O)O (stereo not given) 25.1 µM [inhibitor, single point]
O=C(c1cccs1)n1nc(-c2ccccc2)nc1NCc1ccc(F)cc1 39.8 µM [inhibitor, single point]
CC[n+]1cc(-c2ccccc2)nc(N2CCOCC2)n1 11.2 µM [inhibitor, partial curve, poor fit]
CCN1C(=O)C(CC(=O)Nc2ccc(F)cc2)N(CCCN2CCN(c3ccc(F)cc3)CC2)C1=S (stereo not given) 0.631 µM [inhibitor, partial curve, poor fit]
Cc1nc(SCC(=O)Nc2ccc(Br)cc2)[nH]c(=O)c1Cc1ccccc1 12.6 µM [inhibitor, partial curve]
COc1ccc(Cn2c(O)c(C=Nc3ccc(O)cc3)c3ccccc3c2=O)cc1 1.41 µM [activator, full curve, poor fit]
O=C(/N=C1\NC(=O)C(F)(C(F)(F)F)S1)NC1CCCCC1 (stereo not given) 17.8 µM [inhibitor, partial curve]
N#Cc1cc(-c2ccccc2)nn1-c1ccccc1 28.2 µM [inhibitor, single point]
CCCCOC(=O)c1ccc(NC(=O)Cc2coc3ccc(C(C)C)cc23)cc1 12.6 µM [inhibitor, partial curve]
Cn1nc(OC(=O)Nc2cccc(Cl)c2)cc1C(F)(F)F 28.2 µM [inhibitor, partial curve, poor fit]
